Details: mouse, in vivo, po, 100 mg/kg/day

Cc1cc(O)c2c(c1)C(=O)c1cc(O)cc(O)c1C2=O [emodin, 6-methyl-1,3,8 trihydroxyanthrachinone, reference compound]
daily food intake / food consumption: lower compared to untreated B6 control mice

Source: patent US20210186947A1, “TOMM6-INTERACTING EXTRACTS AND COMPOUNDS FOR USE IN THE TREATMENT AND PROPHYLAXIS OF NERVOUS SYSTEM DISEASES, ATHEROSCLEROSIS, HEPATITIS B INFECTION AND HUMAN PAPILLOMA VIRUS (HPV) INFECTION” (ETH ZURICH, priority 2018, published 2021)
